# Measured values from the RNAGym collection of RNA variant scans (doi:10.1093/nar/gkz1192).
# Read counts are not given, so values of variants with three or more changes are uncertain.
# B1: CPEB3 Ribozyme (parent)
# chain: UAACAGGGGGCCACAGCAGAAGCGUUCACGUCGCAGCCCCUGUCAGAUUCUGGUGAAUCUGCGAAUUCUGCUGUAUAUCUC
# Variants of: B1
# Experiment: self-cleavage, relative activity (ratio to wild type); higher = more cleavage; in vitro, sequencing
# In short: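 For each CPEB3 ribozyme variant, relative activity is its cleaved/total read fraction divided by the unmutated ribozyme's. Barcoded error-prone PCR libraries were transcribed by T7 RNA polymerase (5 hours, 37°C) and held in DNase I for 15 min before an EDTA stop, with cleavage occurring throughout. Template-switching reverse transcription and Illumina sequencing were used to read the RNAs. A 5-read minimum applied, and results are the mean of three batches.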
row,Variant,self-cleavage
1,UAACGGGAGGCCAUAGCAGAAGCGUUCACGUCGCAGCCCCUGUCAGAUUCUGGUGAAUCUGCGAAUUCUGCUGUAUAUCUC [A5G G8A C14U],0.47
2,UAACGGGGGGCCACAGCAGAAGCGUUCACGUCGCAGCCCUUGUCAGAUUCUGGUGGAUCUGCGAAUUCUGCUGUAUAUCUC [A5G C40U A56G],0.53
3,UAACGGGGGGCCACAGCAGAAGCGUUCACGUCGCAGCCCUUGUCAGAUCCUGGCUAAUCUGCGAAUUCUGCUGUAUAUCUC [A5G C40U U49C U54C G55U],0.34
4,UAACGAGGGGCCACAGCAGAAGCGUUCACGUCGCAGCCCCUGCCAGAUUCUGGUGAAUCUGCGAAUUCUGCUGUAUAUCUC [A5G G6A U43C],0.4
5,UAACGGGAGGCCACGGCAGAAGCGUCCUCGUCGCAGCCCCGGUCAGAUUCUGGUGAAUCUGCGAAUUCUGCUGUAUAUCUC [A5G G8A A15G U26C A28U U41G],0.42
6,UAACGGGGGGCCACAGCAGAAGCGUUCACGUCGCAGCCACUGUCAGAUUCUGGGGAAUCUGCGAAUUCUGCUGUAUAUCCC [A5G C39A U54G U80C],0.27
7,UAACGGGGGGCCACAGCAGAAGCGUUCACGUCGCAGCCCCUGUCAGAUUUUGGUGAAUCUGCGAACUCUGCUGUAUAUCUC [A5G C50U U66C],0.28
8,UAACGGGGGGCCACAGCAGAAGCGUUCACGUCGGAGCCCCUGCCAGAUUCUGGUGUAUCUGCGAAUUCUGCUGUAUAUCUC [A5G C34G U43C A56U],0.13
9,UAACGUGGGGCCACAGCAGAAGCGUUCACGUCGCAGCCCCUGUCAGAUUCUGGUGAAUCAGCGAAUUCUGCUGUAUAUCUC [A5G G6U U60A],0.29
10,UAACGGGGGGCCACAGCAGAAGCGUUCACGUCGCAGCCACUGCCAGAUUCUGGUGGAUCUGCGAAUUCUGCUGUAUAUCUC [A5G C39A U43C A56G],0.23
11,UAACGGGGGGCCACAGCAGAAGCGUUCACGUCGGAGCCCCUGUCAGAUUCUGGUGAAUCUGCGAAUUCUGCUGUAUAUUGC [A5G C34G C79U U80G],0.13
12,UAACGGGAGGCCACGGCAGAAGCGUUCUCGACGCAGCCCCUGUCAGAUUCCGGUGAAUCUGCGAAUUCUGCUGUAUAUCUC [A5G G8A A15G A28U U31A U51C],0.32
13,UAACGGGGGGCCACAGCAGAAGCGUUCACGUCGCAGCUCCUGUCAGAUUCUGGUGUAUCUGCGAACUCUGCUGUAUAUCUC [A5G C38U A56U U66C],0.1
14,UAACGGUGGGCCACAGCAGAAGCGUUCACGUCGCAGCCCCCGUCAGGUUCUGGUGAAUCUGCGAAUUCAGCUAUAUAUCUC [A5G G7U U41C A47G U69A G73A],0.05
15,UAACGGGGGGCCACAGCAGAAGCGUUCACGUCGCAGCCCUUGUCAGGUUCUGGUGAAUCUGCGAAUUCUGCUGUAUAUCUC [A5G C40U A47G],0.5
16,UAACGAGGGGCCACAGCAGAAGCGUUCACGUCGCAGCCCCUGUCAGAUUCUGGUGAAUCUGCGAAUUCUGCUGUAUACCUC [A5G G6A U78C],0.11
17,UAACGGGGGGCCACAGCAGAAGCGUUCACGUCGCAGCCCGUGUCAGACUCUGGUGAAUCUGCGAAUUCUGCUGUAUAUCUC [A5G C40G U48C],0.29

row,Variant,self-cleavage
1,UAACGAGGGGCCACAGCAGAAGCGUUCACGUCGCAGCCCCUGUCAGAUUCUGGUGAAUCUGCGGAUUCUGCUGUAUAUCUC [A5G G6A A64G],0.23
2,UAACGGGGGGCCACAGCAGAAGCGUUCACGUUGCAGCCCCUGUCAGAUUCUGGUGAAUCUGCCAAUUCUGCUGUAUAUCCC [A5G C32U G63C U80C],0.41
3,UAACGGAGGGCCACAGCAGAAGCGUUCACGGCGCAGCCCCUGUCAGAUUCUGGUGAAUCAGCGAAUUCUGCUGUAUAUCCC [A5G G7A U31G U60A U80C],0.07
4,UAACGAGGGGUCACAGCAGAAGCGUUCACGACGCAGCCCCUGUCAGAUUCUGGUGGAUCUGCGUAUUCUGCGGUAUAUCUC [A5G G6A C11U U31A A56G A64U U72G],0.05
5,UAACGGGGGGCCACAGCAGAAGCGUUCACGUCGCAGCCCAUGUCGGAUUCUGGUGAAUCCGCGAAUUCUGCUGUAUAUCUC [A5G C40A A45G U60C],0.21
6,UAACGGAGGGCCACAGCAGAAGCGUUCACGUCGCAGACCCUGUCAGAUUCUGGUGAAUCUGCGAAUUCUGCCGUAUAUCUC [A5G G7A C37A U72C],0.22
7,UAACGGGGGGCCACAGCAGAAGCGUUCAUGUCGCAGCCCCCGUCAGAUUCAGGUGAAUCUGCGAAUUCAGCUGUACAUCUC [A5G C29U U41C U51A U69A U76C],0.13
8,UAACGGGGGGCCACAGCAGAAGCGUUCACGUCGCAGACACUGUCAGAUUCUGGUGAAUCUGCGAAUUCUGCCGCAUAUCUC [A5G C37A C39A U72C U74C],0.45
9,UAACGGGGGGCCACAGCAGAAGCGUUCACGUCGCAGCCUCUGUCAGAUUCCGGUGAAUCUGCGAAUUCUGCUGUAUAACUC [A5G C39U U51C U78A],0.27
10,UAACGGGGGGCCACAGCAGAAGCGUUCACGUCGCAGCCCCUGUAAGAUUCUGGUGAAUCUGCGAAUUCAGCUGGAUAUCUC [A5G C44A U69A U74G],0.56
11,UAACGGUGGACCACUGCAUAAGCGUUCACGUCGCAGCCCCUGUCAGAUUCUGGUGAAUCUGCGAAUUCUGCUGUAUAUCUC [A5G G7U G10A A15U G19U],0.25
12,UAACGGGGGGCCACAGCAGAAGCGUUCACGUCGCAGCCUCUGUCAGAUUCUGGUGAAUCCGCGAAUUCUGCUGUAUAUCUC [A5G C39U U60C],0.32
13,UAACGGGGGGCCACAGCAGAAGCGUUCACGUCGCAGCCACUGCCAGAGUCUGGUGACUCUGCGAAUUCUGCUGUAUAUCUC [A5G C39A U43C U48G A57C],0.37
14,UAACGGGAGGCCACGGCAGAAGCGUUCUCGUCGCAGCCCCUGUCAGAUUCCGGUGAAUCUGCGAAUUCUGCUGUAUAUCUC [A5G G8A A15G A28U U51C],0.25
15,UAACGAGGGGCCACAGCUGAAGCGUUCACGUCGCAGCCCCUGUCAGAUUCUGGUGAAUCUGCGAAUUCUGCUGUAUAUCUC [A5G G6A A18U],0.34
16,UAACGAGGAGCCACAGCAGAAGCGAUCACGUCGCAGCCCCUGACAGAUUCUGGUGAAUCUGCGAAUUCUGCUGUAUAUCUC [A5G G6A G9A U25A U43A],0.08
17,UAACGGUGCGCCACAGCAGAAGCGCUCACGUCGCAGCCCCCGUCAGAUUCUGGUGAAUCUGCGAAUUCUGCUGUAUAUCUC [A5G G7U G9C U25C U41C],0.45
